From PubChem BioAssay AID624417 (National Center for Advancing Translational Sciences (NCATS), 2012)
The campaign covered roughly 410,000 compounds. About 6,400 (1.6%) were called active. Inconclusive means that the source gave no clear call. Such entries were picked first, then a sample of the others. Calls come from the whole dose curve; as a rule, active = well fitted inhibition curve with a large enough effect; inconclusive = small, poorly fitted or top-dose-only effect; inactive = no such curve, though single readings can be large or run the other way. Potencies of inconclusive entries are left out as doubtful fits.

Each molecule was assayed against Glucagon-like peptide 1 receptor (Homo sapiens) (UniProt P43220) (assay: qHTS of GLP-1 Receptor Inverse Agonists (Inhibition Mode)). Conditions: HEK293 GLP-1R CRE-luciferase, luminescence, 24 h, GLP-1R form is constitutively active; series mostly up to 38.3 µM.
In short: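 Cells are plated, allowed 12 hours at 37 deg C, then treated with compounds for 24 hr before luciferase detection reagent is added and luminescence is read after 12 min at room temperature. The HEK293 line carries constitutively active GLP-1R with a cAMP-responsive reporter.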
Note: nearly all actives have a fitted effect of over 55% in size.
Potency is the fitted concentration of half-maximal effect; tags give direction and shape of the fitted curve.

Sequence of UniProt P43220 (P43220 whole entry, looked up): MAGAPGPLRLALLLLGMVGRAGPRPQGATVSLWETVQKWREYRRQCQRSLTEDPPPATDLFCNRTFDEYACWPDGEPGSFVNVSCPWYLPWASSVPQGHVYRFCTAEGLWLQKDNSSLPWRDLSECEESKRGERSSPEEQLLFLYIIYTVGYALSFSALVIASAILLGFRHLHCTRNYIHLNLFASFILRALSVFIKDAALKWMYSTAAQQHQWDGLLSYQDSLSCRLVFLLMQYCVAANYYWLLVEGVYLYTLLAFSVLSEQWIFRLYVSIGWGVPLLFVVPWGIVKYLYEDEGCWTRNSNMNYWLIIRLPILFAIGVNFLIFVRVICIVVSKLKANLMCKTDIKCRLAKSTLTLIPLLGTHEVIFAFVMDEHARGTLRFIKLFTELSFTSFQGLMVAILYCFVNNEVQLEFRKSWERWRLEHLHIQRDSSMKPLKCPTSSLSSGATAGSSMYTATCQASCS

| Structure (SMILES) | Potency |
| --- | --- |
| O=C1N(c2ccccc2)C[C@@H]2C[C@@H](c3cccc4c3OCO4)N3CCC[C@@]123 | inconclusive [inhibitor, single point] |
| CCCOc1ccc(C(=O)CCNc2cccc(Cl)c2)cc1 | inconclusive [inhibitor, single point] |
| CCCCCCCCn1ccc(=N)cc1 | inconclusive [inhibitor, partial curve] |
| CC(C)(C)n1ncc2c(=O)n(CC(=O)NCc3ccccc3Cl)cnc21 | inconclusive [inhibitor, single point] |
| Clc1ccc(Cn2cc(/C=N/n3cnnc3)c3ccccc32)c(Cl)c1 | inconclusive [inhibitor, single point] |
| CCN1CCN(Cc2c(O)ccc3oc(C)c(C(=O)Nc4cccc(C(F)(F)F)c4)c23)CC1 | inconclusive [inhibitor, single point] |
| CCCCOC(=S)NC(=O)c1sc2ccccc2c1Cl | inconclusive [inhibitor, single point] |
| COc1ccc(-c2csc3ncnc(NCCCO)c23)cc1 | inactive |
| CC(C)(C)c1csc(NC(=O)c2ccccc2O)n1 | inconclusive [inhibitor, single point] |
| CC(C)(C)c1ccc(C(=O)Nc2ccc(-c3nc4ccccc4o3)c(O)c2)cc1 | inactive |
| O=C(c1cc(COc2c(F)cccc2F)on1)N1CCC(c2ccccc2F)C1 (stereo not drawn) | inconclusive [inhibitor, single point] |
| CCCS(=O)(=O)c1cnc(C2COc3ccccc3O2)nc1N (stereo not drawn) | inconclusive [inhibitor, full curve, poor fit] |
| CC(NC(=O)c1ccco1)C(=O)NC(C)c1cc(F)c(Cl)cc1Cl (stereo not drawn) | inconclusive [inhibitor, full curve] |
| CCCC(=O)Nc1cccc(Oc2ccc3c(c2)C(=O)NC3=O)c1 | inactive |
| Cc1ccc(C)c(NC(=O)C(CC(C)C)N2Cc3ccccc3C2=O)c1 (stereo not drawn) | inconclusive [inhibitor, partial curve, poor fit] |
| O=C(Cc1c[nH]c2ccccc12)NCc1ccc2c(c1)OCO2 | inconclusive [inhibitor, partial curve, poor fit] |
| COc1ccc(OC)c(NC(=O)CCc2c[nH]c3ccccc23)c1 | inconclusive [inhibitor, partial curve, poor fit] |
| COc1cccc(NC(=O)Nc2ccc3c(c2)N(C)C(=O)c2ccccc2S3)c1 | inconclusive [inhibitor, single point] |
| CC1CCN(C(=O)Cn2c(-c3cccs3)cc3cc(Cl)ccc32)CC1 | inconclusive [inhibitor, single point] |
| CC(NC(=O)CN1CCN(c2ncccn2)CC1)c1ccc(F)cc1 (stereo not drawn) | inactive |
| CCCN1C(=O)c2ccc(C(=O)Nc3cc(C)ccc3O)cc2C1=O | inactive |

| Structure (SMILES) | Potency |
| --- | --- |
| CCOC(=O)C(C(=O)Cc1ccccc1)c1ccccc1 (stereo not drawn) | inconclusive [inhibitor, single point] |
| COc1cccc(CC(=O)Nc2ccc(S(=O)(=O)N3CCCCC3)cc2)c1 | inconclusive [inhibitor, single point] |
| CC(=O)O[C@H]1[C@H](O)[C@H](Oc2c(O)c(C)c3c4c2[C@@H](C)CC[C@@H]4[C@@H](C)C[C@H]3C=C(C)C)O[C@@H](C)[C@H]1O | inconclusive [inhibitor, single point] |
| CC(C)c1ccc(NC(=O)C(c2ccccc2)N2CCN(C(=O)c3ccco3)CC2)cc1 (stereo not drawn) | inconclusive [inhibitor, single point] |
| Cc1cccc(CSCCNC(=O)CN(c2cc(C)cc(C)c2)S(C)(=O)=O)c1 | inconclusive [inhibitor, partial curve, poor fit] |
| CCOc1ccc(N(Cc2ccccc2F)C2=NC3CS(=O)(=O)CC3S2)cc1 (stereo not drawn) | inconclusive [inhibitor, single point] |
| Cc1ccc2cc(C3CC(c4ccco4)=NN3S(C)(=O)=O)c(Cl)nc2c1 (stereo not drawn) | inactive |
| COC(=O)[C@@]12C[C@@H](CC(=O)NCc3ccccc3)C(=O)N(CCc3ccc(OC)c(OC)c3)C1=CCC(C)(C)C2 | inconclusive [inhibitor, single point] |
| Cc1ccccc1Nc1c(-c2ccc(N3CCOCC3)cc2)nc2ccc(Br)cn12 | inconclusive [inhibitor, partial curve, poor fit] |
| CCSc1ncc(Cl)c(C(=O)Nc2cccc(Cl)c2)n1 | inconclusive [inhibitor, single point] |
| O=C(CCSc1nc(-c2ccco2)cc(C(F)(F)F)n1)NCc1cccs1 | inconclusive [inhibitor, partial curve, poor fit] |
| COc1ccc(CNC[C@H]2O[C@@H](n3ccc(=O)[nH]c3=O)[C@H](O)[C@@H]2O)cc1OC | inactive |
| CNC(=S)NCc1ccc(OC)cc1 | inconclusive [inhibitor, single point] |
| CC(C)(C)Nc1nc(SCC(=O)Nc2ccccc2Cl)nc(N2CCOCC2)n1 | inconclusive [inhibitor, single point] |
| Cc1ccc(-c2csc3ncnc(N4CCN(c5ccccc5O)CC4)c23)cc1 | inconclusive [inhibitor, partial curve, poor fit] |
| Clc1ccc(OCc2nc(-c3ccncc3)no2)c(Br)c1 | inconclusive [inhibitor, single point] |
| COC(=O)c1sccc1NC(=S)N1CC(C)CC(C)C1 (stereo not drawn) | inconclusive [inhibitor, full curve, poor fit] |
| Cc1ccccc1OCC(=O)Nc1ccccc1-c1ccccc1 | inconclusive [inhibitor, single point] |
| CC(=O)Nc1ccc(S(=O)(=O)N2c3ccc(F)cc3CCC2C)cc1 (stereo not drawn) | inconclusive [inhibitor, partial curve] |
| CCCCN(CC)CCNC(=O)CCC(=O)Nc1ccc2nc(N3CCN(C)CC3)cc(C)c2c1 | inconclusive [inhibitor, partial curve, poor fit] |
| Cc1ccc(S(=O)(=O)Oc2ccc(C)cc2/C=N/N=C2\NC(=O)C(C)S2)cc1 (stereo not drawn) | inconclusive [inhibitor, single point] |

| Structure (SMILES) | Potency |
| --- | --- |
| O=C(Nc1ccncc1)c1ccc(Cl)c(S(=O)(=O)N2CCc3ccccc32)c1 | inconclusive [inhibitor, single point] |
| CCCc1ccc2oc(C(=O)N(Cc3ccncc3)CC3CCCO3)c(C)c2c1 (stereo not drawn) | inconclusive [inhibitor, partial curve, poor fit] |
| Cc1cc(C)c(OCC(=O)OCC(=O)N(C)C2CCS(=O)(=O)C2)c(C)c1 (stereo not drawn) | inactive |
| C=CCn1c(COc2ccccc2)nnc1SCc1ccc(C#N)cc1 | inconclusive [inhibitor, partial curve] |
| Cc1ccc(C(=O)NC2CC3CCCC(C2)N3C(=S)NCc2ccco2)cc1 (stereo not drawn) | inconclusive [inhibitor, partial curve, poor fit] |
| COC(=O)c1ccc(CSC(=N)N)o1 | inconclusive [inhibitor, single point] |
| COc1ccc(-c2csc(NC(=O)Cc3cc(OC)c(OC)c(OC)c3)n2)cc1OC | inconclusive [inhibitor, single point] |
| CN(C)CCCNC(=O)/C(=C/c1ccc(-c2ccc([N+](=O)[O-])cc2)o1)NC(=O)c1ccccc1 | inconclusive [inhibitor, single point] |
| CNC(=O)CN1C(=O)COc2ccc(S(=O)(=O)N3CCC(C)CC3)cc21 | inactive |
| FC(F)(F)c1cc(-c2ccco2)nc(NCc2ccco2)n1 | inconclusive [inhibitor, single point] |
| COc1ccc(C(=O)N/N=C/c2ccccn2)cc1 | inconclusive [inhibitor, single point] |
| CC1(C(=O)NS(=O)(=O)c2ccc(Cl)s2)CCN1C(=O)c1ccccc1CCc1ccccc1 (stereo not drawn) | inconclusive [inhibitor, single point] |
| C/C(=N\NC(=O)c1ccc(O)cc1)c1cccc(NC(=O)c2ccccc2C)c1 | inconclusive [inhibitor, single point] |
| CC(NCc1cc(Br)ccc1OCC(=O)NCc1ccccc1)c1ccccc1 (stereo not drawn) | inconclusive [inhibitor, partial curve, poor fit] |
| COc1ccc(NC(=O)CCNS(=O)(=O)c2ccc3c(c2)c(=O)n(C)c(=O)n3C)c(OC)c1 | inactive |
| Cc1cccn2c(=O)c3cc(C(=O)NCCc4ccccc4)c(=N)n(Cc4ccco4)c3nc12 | inactive |
| Cc1cccc(OCCCC(=O)Nc2ccc(S(=O)(=O)N3CCCC3)cc2)c1 | inconclusive [inhibitor, partial curve, poor fit] |
| COc1ccc(NC(=O)C2CCN(S(=O)(=O)c3c(C)noc3/C=C/c3cccs3)CC2)cc1Cl | inactive |
| O=C(NCCSc1c[nH]c2ccccc12)c1ccccc1Cl | inconclusive [inhibitor, single point] |
| CCCOc1ccccc1-n1sc2c(c1=S)-c1cc(OC)cc3c1N(C(=O)C3=O)C2(C)C | inconclusive [inhibitor, full curve, poor fit] |
| NC(=Nc1ccccc1)N(c1ccccc1)c1ccccc1 | inconclusive [inhibitor, single point] |
